From PubChem BioAssay AID463173 (ICCB-Longwood Screening Facility, Harvard Medical School, 2010)
The whole screen tested about 52,000 compounds, of which about 4,300 (8.3%) were called active. Cut-off read from the data, not from the text of the source: active = survival mostly below about 52% (no sharp cut-off); inactive = mostly above about 56%. Some of the results follow.

Tested on: DeltatarO mutant
Test: growth inhibition of S. aureus wild type versus tarO mutant, primary screen, teichoic acid synthesis inhibitors, RN4220, OD600 (AID 463173)
Conditions: OD600, 18 h, stronger effect = lower value, screened at 18.75 µg/mL (by protocol)

SMILES | survival
Cc1ccc(C)c(NC(=O)C(NS(=O)(=O)c2ccc3c(c2)CCC(=O)N3)c2ccccc2)c1 (stereo unspecified) | inactive: 113%
CC[C@H](C)NC(=O)CCCc1nnc2n(CCC(C)C)c(=O)c3sccc3n12 | inactive: 86%
COc1ccccc1OC(C)C(=O)N1CCN(CCc2ccccn2)CC1 (stereo unspecified) | inactive: 63%
CCC(C)n1c(=N)c(C(=O)NC2CCCCC2)cc2c(=O)n3cc(C)ccc3nc21 (stereo unspecified) | inactive: 126%
CCOC(=O)C1CCCN(C(=O)Cn2nc(C)n3c(cc4c(OC)cccc43)c2=O)C1 (stereo unspecified) | inactive: 82%
O=S(=O)(NCc1ccccc1Cl)c1cccc(S(=O)(=O)N2CCOCC2)c1 | inactive: 71%
O=c1cc(N2CCN(c3ccc(F)cc3)CC2)[nH]c(=O)n1-c1cccc(Br)c1 | inactive: 63%
CC(C)c1ccc(Cc2cnc(NC(=O)c3ccc4c(c3)CC(c3ccccc3)OC4=O)s2)cc1 (stereo unspecified) | inactive: 60%
Cc1cccc(C(=O)NCc2cn3cccc(C)c3n2)c1 | inactive: 106%
CCC/C(O)=C1\C(=O)CC(C)(C)CC1=Nc1ccncc1 | inactive: 117%
Fc1ccc(-c2noc3ncnc(NCc4cccc(Cl)c4)c23)cc1 | inactive: 61%
Cc1cccc(Cc2c(C)nc3nc(SCC(=O)NC4CCCCC4)nn3c2C)c1 | active: 40%
CCOC(=O)c1nnc2c(-c3ccc(F)cc3)c(C)nn2c1N | inactive: 95%
COc1ccc(/C=C\c2onc(C)c2S(=O)(=O)N2CCC(C(=O)Nc3ccc(C)c(F)c3)CC2)cc1 | inactive: 66%
COc1ccccc1CNC(=O)c1cnn(-c2ccc(F)cc2F)c1C1CCN(C(=O)OC(C)(C)C)CC1 | inactive: 84%
Cc1ccc(N2CC(NC(=O)Cc3ccc(F)cc3)CC2=O)cc1C (stereo unspecified) | inactive: 70%
COc1ccc(-c2noc(CCC(=O)Nc3ccccc3Cl)n2)cc1OC | inactive: 97%
COCCN1CN=C(NS(=O)(=O)c2ccc(C)cc2)NC1 | inactive: 82%
Cc1nc(N(CCO)C2CCCCC2)c2nnn(Cc3ccccc3)c2n1 | inactive: 103%
CCN(CC)c1ccc(C2C(C(N)=O)=C(C)Nc3nc(SCc4ccccc4)nn32)cc1 (stereo unspecified) | inactive: 76%
COc1cc(C)ccc1OCCSc1nnc(-c2cccs2)o1 | active: 40%
FC(F)(F)c1cccc(N2CCN(Cc3nnc(-c4ccccc4)o3)CC2)c1 | inactive: 48%
CCOc1ccccc1CNC(=O)c1ccc(Cn2c(=O)c3cccn3c3cccnc32)cc1 | active: 44%

SMILES | survival
CC(C)c1ccc(-c2noc(SCC(=O)N3CCCCC3)n2)cc1 | inactive: 72%
CCCN(CCC)CCCNC(=O)c1nn(C)c2c1CS(=O)(=O)c1ccccc1-2 | inactive: 106%
CC(=O)Nc1nonc1-c1nnc(SCc2cccc(Br)c2)n1C | inactive: 105%
O=C(Nc1ccc(N2CCN(C(=O)c3ccco3)CC2)cc1)c1ccccc1 | inactive: 93%
COc1ccc(/C=C(\C#N)c2nc(-c3cc4ccccc4oc3=O)cs2)cc1OC | inactive: 65%
CC1CCN(S(=O)(=O)c2ccc3nc(N4CCN(c5ccccc5F)CC4)ccc3c2)CC1 | inactive: 97%
COC(=O)c1cccnc1-n1c(=O)c2cccnc2n(CC(=O)Nc2cccc(C(F)(F)F)c2)c1=O | inactive: 72%
CCOc1cc(C2CC(=O)Nc3c2c(C)nn3-c2nc(C)cc(C)n2)ccc1O (stereo unspecified) | inactive: 82%
Cc1ccc(-c2onc(C)c2C)cc1S(=O)(=O)NC1CCC(C)CC1 (stereo unspecified) | inactive: 82%
COc1ccccc1N1CCN(C(=O)c2oc3ccccc3c2N)CC1 | inactive: 52%
CCOC(=O)C1CCN(C(=O)c2nn(-c3ccc(C)cc3)c(=O)n(C)c2=O)CC1 | inactive: 69%
COC(=O)c1c(-c2cccs2)csc1NC(=O)COc1ccc(C(C)C)cc1 | inactive: 72%
CCOc1ccc(CNC(=O)c2cnc(SC)nc2C)cc1 | inactive: 107%
CCc1ccc(CNC(=O)c2ccc(CS(=O)(=O)Cc3ccccc3C)o2)cc1 | inactive: 79%
O=C(Nc1ccc(Cl)cc1C(F)(F)F)c1cc(S(=O)(=O)NCc2ccccc2)ccc1F | inactive: 130%
CCN(CC)C(=O)C1CCN(C(=O)c2cnn(-c3ccccc3)c2-n2cccc2)CC1 | inactive: 83%
CCOC(=O)CSc1nc2ccccc2n2c(C)nnc12 | inactive: 92%
COc1ccc(CNC(=O)CCS(=O)(=O)c2ccc3c(c2)CC(C)N3C(=O)C2CC2)cc1 (stereo unspecified) | inactive: 95%
Cc1ccc(NC(=O)C(C)Sc2n[nH]c(-c3ccccc3O)n2)cc1 (stereo unspecified) | active: 23%
COc1cccc(NC(=O)CN2C(=O)C3(SCC(=O)N3c3cc(C)cc(C)c3)c3ccccc32)c1 (stereo unspecified) | inactive: 83%
Cc1ccc(NC(=O)C2CCN(S(=O)(=O)c3c(C)noc3C)CC2)cc1C | inactive: 91%
Cc1ccc(CN2C(=O)N(c3ccc(C)c(Cl)c3)S(=O)(=O)c3ccccc32)cc1 | inactive: 83%
N#Cc1ccc(NC(=O)COCc2cc(-c3ccc(F)cc3)on2)cc1 | inactive: 60%

SMILES | survival
COC(=O)c1cc2oc(C)cc2n1Cc1ccc(Cl)cc1 | inactive: 73%
CCN1CCN(c2ncc3c(n2)CCN(Cc2ccc(C)s2)C3)CC1 | inactive: 64%
Cc1cccc(CCNC(=O)c2nc(-c3ccc(Cl)cc3)n3c2CCCCC3)c1 | inactive: 89%
CC(=O)c1ccc(NC(=O)COc2ccccc2-c2nc(C)no2)cc1 | inactive: 95%
CCn1c2c(c(=O)n3ncc(C(=O)Nc4ccc(F)c(Cl)c4)c13)CN(Cc1ccc(OC)cc1)CC2 | active: 17%
CCOc1ccc(C(=O)OCc2cc(=O)n3nc(C(C)C)sc3n2)cc1 | inactive: 96%
CC(C)CC(=O)N(Cc1ccccc1)S(=O)(=O)c1ccc2c(c1)oc(=O)n2C | inactive: 105%
Cc1ccc(Cl)cc1N1CCN(C(=O)c2cn(C)c3ccc(S(=O)(=O)N4CCCC4)cc3c2=O)CC1 | inactive: 124%
CCOc1ccc(-n2ccnc2SCC(=O)Nc2ccc(OC)cc2OC)cc1 | inactive: 67%
CC1=C(C(=O)OC2CCCC2)C(c2cccc(Cl)c2Cl)CC(=O)N1 (stereo unspecified) | inactive: 65%
O=C(CC(=O)Nn1cnnc1)Nn1cnnc1 | inactive: 91%
O=C(Cn1c(=O)n(-c2ccccc2)c(=O)c2c3c(sc21)CCCC3)Nc1ccc(F)cc1 | inactive: 98%
COc1ccccc1N1CCN(C(=O)c2cc3c(=O)n(Cc4cccnc4)ccc3nc2C)CC1 | inactive: 91%
CCOc1ccccc1NC(=O)NC(CC)c1c(-n2cccc2)sc2c1CCN(C)C2 (stereo unspecified) | inactive: 73%
CCc1ccc(Nc2nc3ccccc3c3nnc(C)n23)cc1 | inactive: 92%
Cc1cccc(N2CCN(C(=O)c3ccc4c(c3)CCN4S(=O)(=O)c3ccccc3)CC2)c1C | inactive: 54%
CC(=O)c1cc(-c2ccccc2)n(CC(=O)Nc2ccc(C)cc2C)c1C | inactive: 87%
Cc1ccc(-c2nc(CS(=O)CC(=O)O)c(C)o2)cc1 (stereo unspecified) | inactive: 91%
Cc1ccc(S(=O)(=O)c2cn(CC(=O)Nc3ccccc3)c3cc4c(cc3c2=O)OCO4)cc1 | inactive: 51%
CC(=O)Nc1cc(C(C)(C)C)nn1C | inactive: 93%
CC(=O)c1ccc(OC(=O)c2c(-c3ccccc3Cl)noc2C)cc1 | inactive: 94%
CCCN(CCC)S(=O)(=O)c1ccc(C(=O)N2CCn3c4c(c5cc(C)ccc53)CCCC42)cc1 (stereo unspecified) | inactive: 58%
O=C(COc1ccc(Cl)cc1Cl)Nc1ccc(C(=O)OC2CCCCC2)cc1 | inactive: 57%

SMILES | survival
Cn1nc(C(=O)Nc2cccc(C(F)(F)F)c2)c2c1-c1ccccc1S(=O)(=O)C2 | inactive: 50%
Cc1occc1C(=O)Nc1ccc2ccccc2c1 | inactive: 92%
CCOc1ccc(NS(=O)(=O)c2ccc3[nH]cc(C(=O)NCCc4ccccc4)c(=O)c3c2)cc1 | inactive: 67%
Cn1c(SCC(=O)Nc2ccccc2F)nc2c([nH]c3ccccc32)c1=O | inactive: 115%
CCOC(=O)c1cc(OC(=O)c2cc(Cl)ccc2OC)n(-c2ccccc2)n1 | inactive: 68%
CCc1ccc(S(=O)(=O)c2nnn3c2nc(NCCC(C)C)c2cc(Cl)ccc23)cc1 | inactive: 67%
COc1ccc(N2CCN(CNC(=O)c3ccccc3)CC2)cc1 | inactive: 95%
CCOC(=O)c1ccc(NC(=O)C2CCCN(c3cnccn3)C2)cc1 (stereo unspecified) | inactive: 74%
COc1ccc(Oc2ncnc3c2oc2ccccc23)cc1 | inactive: 55%
COc1cccc(/C=C(\C#N)c2nc3ccccc3c(=O)[nH]2)c1OC | inactive: 84%
CCCC(C(=O)Nc1cc(C)c(Cl)cc1OC)N1Cc2ccccc2C1=O (stereo unspecified) | inactive: 81%
COc1cc(NC(=O)Cn2cc(S(=O)(=O)N3CCC(C)CC3)c3ccccc3c2=O)cc(OC)c1OC | inactive: 72%
CCOC(=O)C1=C(CNCc2ccc(Cl)cc2)NC(=O)NC1c1ccccc1 (stereo unspecified) | inactive: 102%
CC(=O)N1c2ccccc2CC1C(=O)N1CCN(c2ccccc2F)CC1 (stereo unspecified) | inactive: 76%
COc1ccc(CCNC(=O)Cn2nc(-c3ccc(Cl)cc3)ccc2=O)cc1OC | inactive: 75%
CCOc1ccc(Nc2ncnc3onc(-c4ccc(Cl)cc4)c23)cc1 | active: 38%
COc1cn(CC(=O)Nc2cccc(C)c2)c(CN2CCCCC2)cc1=O | inactive: 85%
Cc1cc(C)cc(OC(C)C(=O)Nc2nc3c(s2)CCCC3)c1 (stereo unspecified) | inactive: 79%
Cc1cc(NC(=O)S(=O)(=O)c2ccccc2)ccc1NC(=O)c1ccco1 | inactive: 65%
O=S(=O)(c1ccccc1)N1CCc2ccccc2C1 | inactive: 114%
Cc1ccc(C2C(=O)N(C3CCCCCC3)CC(=O)N2CCC2=CCCCC2)cc1 (stereo unspecified) | inactive: 86%
Cc1ccc(N2CCN(C(=O)CCS(=O)(=O)c3cc4c(cc3Cl)NC(=O)CO4)CC2)c(C)c1 | inactive: 84%
